{"source": "paper PMC9911399", "about": "“Two distinct binding modes provide the RNA-binding protein RbFox with extraordinary sequence specificity”", "binders": {"B1": {"name": "CAAGGGG (DNA:RNA)", "RNA": "GGGAGACCGGAAUUCAGAUUGUCCCAAGGGGUUAAAUCCCGUCGUAGCCACCA", "DNA 1": "CAATCTGAATTCCGGTCTCCC", "DNA 2": "TGGTGGCTACGACGGGATT"}, "B2": {"name": "CGGACCA (DNA:RNA)", "RNA": "B1 RNA with A26G, A27G, G28A, G29C, G30C, G31A", "DNA 1": "CAATCTGAATTCCGGTCTCCC", "DNA 2": "TGGTGGCTACGACGGGATT"}, "B3": {"name": "GAAGGAA (DNA:RNA)", "RNA": "B1 RNA with C25G, G30A, G31A", "DNA 1": "CAATCTGAATTCCGGTCTCCC", "DNA 2": "TGGTGGCTACGACGGGATT"}, "B4": {"name": "UAGAUCU (DNA:RNA)", "RNA": "B1 RNA with C25U, A27G, G28A, G29U, G30C, G31U", "DNA 1": "CAATCTGAATTCCGGTCTCCC", "DNA 2": "TGGTGGCTACGACGGGATT"}, "B5": {"name": "UUCACCA (DNA:RNA)", "RNA": "GGGAGACCGGAAUUCAGAUUGUCCUUCACCAUUAAAUCCCGUCGUAGCCACCA", "DNA 1": "CAATCTGAATTCCGGTCTCCC", "DNA 2": "TGGTGGCTACGACGGGATT"}, "B6": {"name": "ACACCGG (DNA:RNA)", "RNA": "B1 RNA with C25A, A26C, G28C, G29C", "DNA 1": "CAATCTGAATTCCGGTCTCCC", "DNA 2": "TGGTGGCTACGACGGGATT"}, "B7": {"name": "AGUAUGC (DNA:RNA)", "RNA": "B1 RNA with C25A, A26G, A27U, G28A, G29U, G31C", "DNA 1": "CAATCTGAATTCCGGTCTCCC", "DNA 2": "TGGTGGCTACGACGGGATT"}, "B8": {"name": "GAUCAGA (DNA:RNA)", "RNA": "B1 RNA with C25G, A27U, G28C, G29A, G31A", "DNA 1": "CAATCTGAATTCCGGTCTCCC", "DNA 2": "TGGTGGCTACGACGGGATT"}, "B9": {"name": "UUUGAGG (DNA:RNA)", "RNA": "B1 RNA with C25U, A26U, A27U, G29A", "DNA 1": "CAATCTGAATTCCGGTCTCCC", "DNA 2": "TGGTGGCTACGACGGGATT"}, "B10": {"name": "GAGCACC (DNA:RNA)", "RNA": "B1 RNA with C25G, A27G, G28C, G29A, G30C, G31C", "DNA 1": "CAATCTGAATTCCGGTCTCCC", "DNA 2": "TGGTGGCTACGACGGGATT"}, "B11": {"name": "GGGAGAU (DNA:RNA)", "RNA": "B1 RNA with C25G, A26G, A27G, G28A, G30A, G31U", "DNA 1": "CAATCTGAATTCCGGTCTCCC", "DNA 2": "TGGTGGCTACGACGGGATT"}, "B12": {"name": "AACACUU (DNA:RNA)", "RNA": "B5 RNA with U25A, U26A, C30U, A31U", "DNA 1": "CAATCTGAATTCCGGTCTCCC", "DNA 2": "TGGTGGCTACGACGGGATT"}, "B13": {"name": "UGAGUCU (DNA:RNA)", "RNA": "B1 RNA with C25U, A26G, G29U, G30C, G31U", "DNA 1": "CAATCTGAATTCCGGTCTCCC", "DNA 2": "TGGTGGCTACGACGGGATT"}, "B14": {"name": "GAUUUAC (DNA:RNA)", "RNA": "B1 RNA with C25G, A27U, G28U, G29U, G30A, G31C", "DNA 1": "CAATCTGAATTCCGGTCTCCC", "DNA 2": "TGGTGGCTACGACGGGATT"}, "B15": {"name": "ACCGGGG (DNA:RNA)", "RNA": "B1 RNA with C25A, A26C, A27C", "DNA 1": "CAATCTGAATTCCGGTCTCCC", "DNA 2": "TGGTGGCTACGACGGGATT"}, "B16": {"name": "UCCUAAG (DNA:RNA)", "RNA": "B5 RNA with U26C, A28U, C29A, C30A, A31G", "DNA 1": "CAATCTGAATTCCGGTCTCCC", "DNA 2": "TGGTGGCTACGACGGGATT"}, "B17": {"name": "CAGUACU (DNA:RNA)", "RNA": "B1 RNA with A27G, G28U, G29A, G30C, G31U", "DNA 1": "CAATCTGAATTCCGGTCTCCC", "DNA 2": "TGGTGGCTACGACGGGATT"}, "B18": {"name": "GCGAAGG (DNA:RNA)", "RNA": "B1 RNA with C25G, A26C, A27G, G28A, G29A", "DNA 1": "CAATCTGAATTCCGGTCTCCC", "DNA 2": "TGGTGGCTACGACGGGATT"}, "B19": {"name": "CUGGAAU (DNA:RNA)", "RNA": "B1 RNA with A26U, A27G, G29A, G30A, G31U", "DNA 1": "CAATCTGAATTCCGGTCTCCC", "DNA 2": "TGGTGGCTACGACGGGATT"}, "B20": {"name": "AAUCAUG (DNA:RNA)", "RNA": "B1 RNA with C25A, A27U, G28C, G29A, G30U", "DNA 1": "CAATCTGAATTCCGGTCTCCC", "DNA 2": "TGGTGGCTACGACGGGATT"}}, "note": "Changes are numbered by the printed parent chain; changes in the protein carry UniProt numbers. The list shows a part of the results.", "data": [{"target": "T1, RBFOX1 RRM RbFoxmut (Fox-RRM*) (Homo sapiens, UniProt Q9NWB1 109-208, R118D;E147R;N151S;E152T)", "T1 sequence": "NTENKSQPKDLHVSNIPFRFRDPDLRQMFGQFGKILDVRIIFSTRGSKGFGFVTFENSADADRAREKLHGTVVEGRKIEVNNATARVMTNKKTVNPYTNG", "assay": "EMSA; HiTS-Eq, 1 nM pool, 10 min; buffer printed only for the single-RNA assays: 10 mM Tris pH 7.5, 150 mM NaCl, 3.4 mM EDTA, 0.001% NP-40, 30 C", "details": "tags: His6 N-terminal (pET28a); label: 5' 32P", "method_in_brief": "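Purified RbFox RRM, wild type or mutant, was incubated for 10 min in 50 µL with 1 nM of a 5′-radiolabelled RNA pool carrying 7 randomized nucleotides, whose flanks were annealed to DNA oligonucleotides, over a series of increasing protein concentrations. Unbound RNA was resolved on 8% native PAGE, cut out, reverse-transcribed, barcoded by PCR and sequenced on an Illumina HiSeq 2500. Relative association constants were derived from changes in read counts for each RNA species versus the control reaction and normalised to the cognate motif.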", "values": [{"binder": "B1", "binding signal": "0.0606 KA relative to UGCAUGU"}, {"binder": "B2", "binding signal": "0.0692 KA relative to UGCAUGU"}, {"binder": "B3", "binding signal": "0.0907 KA relative to UGCAUGU"}, {"binder": "B4", "binding signal": "0.0767 KA relative to UGCAUGU"}, {"binder": "B5", "binding signal": "0.0905 KA relative to UGCAUGU"}, {"binder": "B6", "binding signal": "0.0774 KA relative to UGCAUGU"}, {"binder": "B7", "binding signal": "0.274 KA relative to UGCAUGU"}, {"binder": "B8", "binding signal": "0.0661 KA relative to UGCAUGU"}, {"binder": "B9", "binding signal": "0.0855 KA relative to UGCAUGU"}, {"binder": "B10", "binding signal": "0.0864 KA relative to UGCAUGU"}, {"binder": "B11", "binding signal": "0.0959 KA relative to UGCAUGU"}, {"binder": "B12", "binding signal": "0.0596 KA relative to UGCAUGU"}, {"binder": "B13", "binding signal": "0.119 KA relative to UGCAUGU"}, {"binder": "B14", "binding signal": "0.0641 KA relative to UGCAUGU"}, {"binder": "B15", "binding signal": "0.0951 KA relative to UGCAUGU"}, {"binder": "B16", "binding signal": "0.0925 KA relative to UGCAUGU"}, {"binder": "B17", "binding signal": "0.0898 KA relative to UGCAUGU"}, {"binder": "B18", "binding signal": "0.0954 KA relative to UGCAUGU"}, {"binder": "B19", "binding signal": "0.103 KA relative to UGCAUGU"}, {"binder": "B20", "binding signal": "0.0748 KA relative to UGCAUGU"}]}]}
